Results on 167 variants are retold here after the RNAGym collection of RNA variant scans (doi:10.1101/gad.245936.114).

Variants at the background level are over-represented here.

First the molecules themselves.
B1: tRNA (parent)
chain: CUCUCGGUAGCCAAGUUGGUUUAAGGCGCAAGACUUUAAUUUAUCACUACGAAAUCUUGAGAUCGGGCGUUCGACUCGCCCCCGGGAGAUUUUUUCCUCGAGCAA

The variants in the data set derive from B1. As to the kind of experiment: nonsense suppression (GFP-seq) (ratio to wild type); higher = more function; SUP4oc tRNA, yeast GFP reporter sort-seq. Summed up: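 Raffinose/galactose medium with 80 mg/L adenine was used to grow yeast carrying genome-integrated tRNA variants (~3% random-mutation library), RFP, and a galactose-driven GFP ochre reporter. Cells went into GFP/RFP bins, which were Illumina-sequenced, and variants with ≥100 reads and ≥30 cells were scored. Nonsense suppression (GFPSEQ) is the per-bin median GFP/RFP weighted by estimated cell share and expressed relative to the unmutated parent tRNA.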
As to A9U A23U A30U, the nonsense suppression is ≤ 0.026. In the case of G10C C27A A62C, the nonsense suppression was ≤ 0.026. For G18U A31G G67A C81A A87G, the nonsense suppression is ≤ 0.026. A33U C68U: the nonsense suppression was ≤ 0.026. On to C34G C56U G66C G85C, for which the nonsense suppression is ≤ 0.026.

For G19C U35A A60G G66A G84C G88A, the nonsense suppression was ≤ 0.026. For U20G U57G G69U the value was ≤ 0.026; for U4C A14U G28C C82A, ≤ 0.026. For the variant U4C U57A, the nonsense suppression stood at 0.609. Regarding G67C G69A G85C, the nonsense suppression is ≤ 0.026.

For C77G G78U, the nonsense suppression is ≤ 0.026.

In the case of G15U A23U, the nonsense suppression is ≤ 0.026.

As to G28C G88A, the nonsense suppression is ≤ 0.026. On to C3A A33C C72G C82A, for which the nonsense suppression was ≤ 0.026. On to U57C C79A, for which the nonsense suppression is ≤ 0.026. With G59A C72U C79G, the nonsense suppression was ≤ 0.026.

G32U G78A: the nonsense suppression is ≤ 0.026.

Turning to U2A A24C U55G G78A C81G, the nonsense suppression is ≤ 0.026.

With A54U U71A, the nonsense suppression is ≤ 0.026.

For C11G A30U U63C, the nonsense suppression is ≤ 0.026. Consider U2A A30U A31G A62G G67A G86C, for which the nonsense suppression was ≤ 0.026. With A13G A54U G61A G66C, the nonsense suppression is ≤ 0.026. For G6C G66U the value was ≤ 0.026; for A23C G61U, ≤ 0.026; for G10U G15U G25U G59A, ≤ 0.026. As to C3U G18U G19C G67A C80U, the nonsense suppression was ≤ 0.026. Consider A14U G25U A30C G65C, for which the nonsense suppression was ≤ 0.026.

As to A24U A54U, the nonsense suppression is 0.208.

With U17G G69U, the nonsense suppression is ≤ 0.026. As to U8A A62G C68A U71C G86A, the nonsense suppression was ≤ 0.026. On to C34U G69U C80G, for which the nonsense suppression was ≤ 0.026. G61A G65C: the nonsense suppression is ≤ 0.026. On to U57C A89C, for which the nonsense suppression was ≤ 0.026. In the case of C3A C72U, the nonsense suppression was ≤ 0.026. Consider U57G G78A, for which the nonsense suppression worked out at 0.0374.

Take U35A U57A: the nonsense suppression is ≤ 0.026.

In the case of U16C U71C, the nonsense suppression is ≤ 0.026. Regarding G59C G84C, the nonsense suppression was ≤ 0.026. G10C U17G A54U C75G C82U: the nonsense suppression was ≤ 0.026.

With G7A C56A C79A C83G, the nonsense suppression was ≤ 0.026.

Consider A87C G88C, for which the nonsense suppression is ≤ 0.026.

Regarding C1G G6U, the nonsense suppression was ≤ 0.026.

For G61A C79U, the nonsense suppression stood at 0.209. The figure for C5A U8C G10C G65A C77A is ≤ 0.026; for U8A G67U C79G it is ≤ 0.026.

For C3U G7C U8A G59U G78A, the nonsense suppression was ≤ 0.026. In the case of C3U C12A C34A, the nonsense suppression is ≤ 0.026.

Turning to C3U U76A C80U, the nonsense suppression was ≤ 0.026.

On to U20C A30U, for which the nonsense suppression was found to be 0.0386.

In the case of C5U C11U C56A, the nonsense suppression was ≤ 0.026. The figure for G65A C77U is ≤ 0.026. On to A14C C72A, for which the nonsense suppression is ≤ 0.026. G10U C72A: the nonsense suppression was ≤ 0.026. C3U C29U G78C: the nonsense suppression was ≤ 0.026.

As to U4G U76G, the nonsense suppression is ≤ 0.026. For C75A A89C the value was ≤ 0.026; for C12G G28C C77A G78A C82U, ≤ 0.026. In the case of U4C C29A, the nonsense suppression came out at 1.11. In the case of U8G U71A G85A, the nonsense suppression was ≤ 0.026.

Consider C64G C68A, for which the nonsense suppression was ≤ 0.026.

Consider G61A C75A C80A, for which the nonsense suppression was ≤ 0.026.

On to U4A A24U U57A G73A, for which the nonsense suppression was ≤ 0.026. For G25U U35C the value was ≤ 0.026; for C5A U22C G78U, ≤ 0.026; for G61A C64G, 0.0404.

Take A31U A87C: the nonsense suppression was ≤ 0.026. As for C3G C64G, the nonsense suppression is ≤ 0.026. In the case of C3G C27U U57C G59A G61A, the nonsense suppression is ≤ 0.026. For C27G U55A G66C U70C the value was ≤ 0.026; for G6A C27U A74G, ≤ 0.026; for A9G U17G G78C, ≤ 0.026. For A9U A54C the value was 0.0503; for G32C G65U G66U C80U, ≤ 0.026; for A23G U58A, ≤ 0.026.

For U8G C72G C83U, the nonsense suppression is ≤ 0.026. In the case of G73A, the nonsense suppression is 1.12. Turning to A62U G65C A89G, the nonsense suppression is ≤ 0.026. The figure for G10C C29U G86A is ≤ 0.026; for C80U C82G it is ≤ 0.026. Turning to A9U U21A G65C, the nonsense suppression is ≤ 0.026.

As to A60U C83U G85C, the nonsense suppression was ≤ 0.026. Consider U22A G86U, for which the nonsense suppression was 0.033.

As for A24C A31C G78C, the nonsense suppression is ≤ 0.026. The figure for C3U U57C G66U is ≤ 0.026; for C3U C27U it is ≤ 0.026. For G15C U57A G73A the value was ≤ 0.026.

For C1G U4C A13C U17A U22G, the nonsense suppression was ≤ 0.026. Consider U2G G7A G26C C34G C75U, for which the nonsense suppression is ≤ 0.026. Turning to U35A U57G U63A C77U, the nonsense suppression is ≤ 0.026.

C34G A62U: the nonsense suppression is ≤ 0.026.

For G26C U55C G61C G65A G84A, the nonsense suppression was ≤ 0.026. On to G19A A54C C79G, for which the nonsense suppression is ≤ 0.026. For the variant C5U A14G U17A, the nonsense suppression was ≤ 0.026. For C75A A87G the value was 0.839; for C3U C12G, ≤ 0.026; for U2C A14C, ≤ 0.026. As for U4C G26C, the nonsense suppression was ≤ 0.026.

Regarding C56A G61U C83G, the nonsense suppression is ≤ 0.026. Turning to G15A U76C, the nonsense suppression was found to be 0.0394. As to G59U G66C U71C, the nonsense suppression is ≤ 0.026. With C34U U71A G73U, the nonsense suppression is ≤ 0.026.

Consider G59A C82G G88A, for which the nonsense suppression was ≤ 0.026.

Regarding U8G C12A A13C A30G, the nonsense suppression was ≤ 0.026.

Turning to U16A C29U G86A, the nonsense suppression is ≤ 0.026. Take C12U U35C G59A: the nonsense suppression is ≤ 0.026. Consider A23G A24G A60C, for which the nonsense suppression was ≤ 0.026. For U8G G25A C34A the value was ≤ 0.026; for A14G G18A A30G, ≤ 0.026. The figure for U57C A62C is ≤ 0.026; for A9U U57G G65C C80A it is ≤ 0.026. On to A13U G15U G26U, for which the nonsense suppression was ≤ 0.026.

Turning to U21A A24C, the nonsense suppression amounted to 0.753. Turning to C11U G59U A62C U71C, the nonsense suppression is ≤ 0.026. On to A9G G65A C81G A89C, for which the nonsense suppression was ≤ 0.026. In the case of G18U A62G, the nonsense suppression is ≤ 0.026. For A14G G61C A62U the value was ≤ 0.026; for C72U C82G, ≤ 0.026; for C3U A30G C34U, ≤ 0.026.

Consider A31U C68A G86A, for which the nonsense suppression was ≤ 0.026.

Turning to U22G C27U A33G C64A, the nonsense suppression was ≤ 0.026. For U55A G78U C83U the value was ≤ 0.026; for C1G A31U, ≤ 0.026.

Turning to C12A U21C U70A, the nonsense suppression is ≤ 0.026. Consider C1U U20A G59U, for which the nonsense suppression was ≤ 0.026. Take G15C A33U: the nonsense suppression was ≤ 0.026.

As to C1U A24C G32C C34G, the nonsense suppression is ≤ 0.026. The figure for G19A G28U G65C is ≤ 0.026. Take C1A A31G C34A U55C C83G: the nonsense suppression is ≤ 0.026.

On to U17C C64G C72A C81A G84C, for which the nonsense suppression was ≤ 0.026.

As for U20A G28U U70A C81G, the nonsense suppression is ≤ 0.026. Turning to G26A C34A, the nonsense suppression was ≤ 0.026. For the variant C1U U8C C29U C82G, the nonsense suppression was ≤ 0.026. For A30C A54C the value was ≤ 0.026; for A30C A54U, ≤ 0.026.

For U4A U55A U71C G73A, the nonsense suppression is ≤ 0.026. As for U55A A62U C68G G69A, the nonsense suppression is ≤ 0.026.

As for U21A A23U U71A A74G C82A, the nonsense suppression was ≤ 0.026. Turning to G10U C64U G84A, the nonsense suppression was ≤ 0.026. The figure for G26U C56A U57G A60U is ≤ 0.026; for U70G C77G it is ≤ 0.026; for C5A C82G it is ≤ 0.026.

For C56G G61U U70A, the nonsense suppression is ≤ 0.026. On to A9U A23U A33U G67A G84C, for which the nonsense suppression is ≤ 0.026. For C1U G32U the value was ≤ 0.026; for U4C U58G, ≤ 0.026.

On to U2C G65C, for which the nonsense suppression is ≤ 0.026.

For U8C C27A C29G, the nonsense suppression is ≤ 0.026.

For the variant U16C A30G, the nonsense suppression was 1.17. With C27A A54U A74C, the nonsense suppression was ≤ 0.026. For C27U G65A the value was 0.0374. For the variant G7U A31C, the nonsense suppression was ≤ 0.026. Consider C12A U57C G67C C72A, for which the nonsense suppression was ≤ 0.026. Consider U8C G25U, for which the nonsense suppression is ≤ 0.026.

Regarding G7A G25U U35C, the nonsense suppression is ≤ 0.026. As for A62C C64U, the nonsense suppression is ≤ 0.026. Take G18U A31G U63A: the nonsense suppression was ≤ 0.026. On to U55A G69A C81A G88C, for which the nonsense suppression is ≤ 0.026. On to C56G G78C C79A G85A, for which the nonsense suppression was ≤ 0.026.

As to C29G A60G, the nonsense suppression is ≤ 0.026.

For C1U A13G A24G C83U, the nonsense suppression was ≤ 0.026.

With U57C C75A, the nonsense suppression was ≤ 0.026. With G10C U20A U63C, the nonsense suppression was ≤ 0.026. Consider G73C G85U, for which the nonsense suppression is ≤ 0.026. U8A A60C G73U A87C: the nonsense suppression is ≤ 0.026. With C5U A23U A24G A54C C75G, the nonsense suppression was ≤ 0.026. Regarding U20C C27U A87G, the nonsense suppression was ≤ 0.026. On to A9U U57A U63C, for which the nonsense suppression is ≤ 0.026.
